# The list shows a part of the results.
# Test system: PfHDP1 homeodomain (GST-tagged)
# Assay: gcPBM binding intensity (ln(normalized median fluorescence intensity)); higher = stronger DNA binding
# In short: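 Binding of GST-tagged P. falciparum DNA-binding domains, expressed in E. coli and used at about 25 μg on average, was carried out for 1 h in 1× PBS containing 1% milk, 0.2 mg/ml BSA, 0.5% salmon testes DNA and 0.03% Triton X-100. The target was an Agilent 4 × 180k array of primer-extended double-stranded 36-bp intergenic genomic probes plus negative controls, read with Alexa488 anti-GST antibody at 488 nm. Binding intensity is the highest Masliner-normalised natural-log median intensity across replicate spots of either probe orientation.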
row,Sequence,gcPBM binding intensity (ln)
1,TATATATATATATATATTGAAATTTATAATAATATT [TGCATGCA_negctrl_site407],9.28
2,ATTTTTTTATGTACACAAAAAAAAAAAAAAATTTAA [CACACA_negctrl_site1028],6.23
3,AACATAGAAACGTTATGTACATATTGAAGGATATTA [XGTACX_site6015],6.76
4,AAATATTTATACTATACACACCCAATTTAAAAAAAA [CACACA_site6669],7.02
5,TATATATATATTGAAGTGCAAAATACTGTACGTAAT,9.81
6,GAAATAATTTCATATACACACATATACATACATACA [CACACA_site1358],7.13
7,AAAAGAATATAAAGATACATTGTGATATGGGACAAA [CACACA_negctrl_site405],6.6
8,TATATATATATAAACAGTACACAAATTGTAAATAAA [XGTACX_site8268],8.73
9,TTAATTCTACTTATTACACACATATTAATCAAAAAT [CACACA_site1478],6.74
10,ACTATACAGTTATACACACACATATATATATAATAT [CACACA_site310],7.29
11,TTTTTTTTTTAATAAAGTACATATAAATTACCTAAT [XGTACX_site4434],5.98
12,AGGTTAAAAATAAATACACACATTTTATGTCTGTAT [CACACA_site996],6.38
13,ATTTCTAGTTTAAGATGTACTTTAATAAAAATTATT [XGTACX_site4820],6.12
14,ATCTTTGGAAATTTATGTACTTATATTTATATTGTA [XGTACX_site6606],6.49
15,AAATATCAACAAAAATGTACAAATGTAAAAGAATAT [XGTACX_site4676],6.84
16,ATGGAAGGAAACAATAAAAAAAAAAAAAAATATATA [XGTACX_negctrl_site594],6.02
17,CATTTAAAGGACAAGCTGCACTTACAAAATAAAAAA,6.44
18,TTTTTTATTTGACAAGCACACACTTAAATATATATA [CACACA_site3358],6.54
19,AATGACAACCTTGTCACACATATATATATATATATA [CACACA_site5977],9.42

row,Sequence,gcPBM binding intensity (ln)
1,AAATGAGTATTCATATGTACACAAATAAAAAATTAA [XGTACX_site2968],6.49
2,AAAATCCACATTTTAGTACACACTTAAAAAATTATT [CACACA_site2955],6.22
3,GAACATACTCAAATAGCACACACATAAATAAAAATG [CACACA_site9283],7.48
4,TATATATATATAATATGTACATATAATCAACATTTT [XGTACX_site3915],8.45
5,TTATATATATATATATGTACGAAAAAGAAAAAAAAG [XGTACX_site6761],6.63
6,ATTTTTATATAATGAACACACATATTATATCATTTA [CACACA_site1572],6.51
7,AAAAGAAAATAAGAAACACACAAAAATATGTAAAAA [CACACA_site7694],6.48
8,TTAGTCATATATATATGTACACACATATATATATTT [XGTACX_site2948],6.37
9,TATATATATATATATACACACATATATATAAATATA [CACACA_site2035],9.27
10,TTAAAAAAAAGACACACACACATACACATATTTATA [CACACA_site7535],6.99
11,CACAAAAGTAAGCACGCACACACAACCTGAAATAAA [CACACA_site166],6.9
12,AAAAAAAAATACATATGTACATATACATATATATAT [XGTACX_site2975],8.7
13,ATATTATATAAATATACACACATTGTTTTATAGCAT [CACACA_site2386],6.94
14,ATATATTTAATTTATGGTACACATAATTTTTTTAGA [XGTACX_site848],6.45
15,ATAAAATATAAAAAAAGTACAAAAAAAAAAAAAAAA [XGTACX_site6657],6.27
16,TAGTAATATATATTTTGTACATAAAATAATATATAA [XGTACX_site7971],6.27
17,CGTTATTATCCACATACACACAGGAATAAAAAATTA [CACACA_site2883],6.69
18,ATTTGAAATGCATGAACACACACAGCTATAAATGCA [CACACA_site8229],6.43
19,TATATATGTTAAAACGTGCACATATATATATATATA [GTGCAC_site9589],10.1

row,Sequence,gcPBM binding intensity (ln)
1,ATATTGACAAATATTACACACATATATAAATATGTA [CACACA_site7835],6.47
2,CCATAGATATTTTATACACACATATAACATATTAAT [CACACA_site6312],6.69
3,ATATAATATTACACAAGTACAAAAATTAATACTAAA [XGTACX_site482],6.23
4,ATTTATTTTAATATATGTACATATATTTTTTTATTA [XGTACX_site3389],6.6
5,ATATATGCATATTATACACACATATGTATATACATT [CACACA_site965],7.81
6,ACCCATGATTGTTACAGTACTCTACTTTCTAATATA [XGTACX_site98],7.11
7,AAACTGTCGCTCATAAAGAAGAATGAAATACATTAA [TGCATGCA_negctrl_site60],6.09
8,TGGAGGTCAGTTCACAGTACCCAGGAAATCTACGGA [XGTACX_site1995],5.93
9,TTTTCTGTATATTGTGTGCACACAATTAACAAAAAA [GTGCAC_site9817],10.6
10,AAAAAAAAAAAAAATGCACACAATGGCTAGCTGTAC [CACACA_site2273],9.44
11,ATACATTTATTGTATTGTACATAATATTATATATTC [XGTACX_site7115],6.55
12,TATTTTAAAAAAAAAAGTACACATAATATATATAAC [XGTACX_site5416],6.79
13,TAATATAATGATGCAGTGCATATGTTAAAATGAAAA,8.68
14,TAATATAATAGAAGTGTACACACATATTTATGGGTG [CACACA_site9023],6.86
15,ATATTTATGGAAAAAGAACACACAATCAAACAAAAA [CACACA_site9233],7.06
16,TCAAAAGAATAATTGGTGCAAATTATATAATATAAT [GTGCAC_site9804],10.5
17,CTTTTTTATATCTCTACACACATTTATAACCATTTG [CACACA_site4897],7.06
18,ATATATATATATTCCACACACACACCCAAAAAAAAA [CACACA_site3649],8.67
19,ACAAAATAAACCACGTGTACAAATTTATAATGTGTA [XGTACX_site1153],6.55

# From the supplement of paper PMC11417369
